In all, about 4,500 sequences were measured (“median log2 fold change of GCK-ALFA target abundance (FLAG IP / Myc IP barcode read proportion)”: median about 0.078, lowest 2% from about -0.6 on). The list shows a part of the results.
B1: GBRAP_125_2988 (protein)
chain: SEEQALEDLARVLRALGFSDEDVAEAVELARRHGLRGTLYAAMLALGYDELAELVAKLTEEETREVLAAVAAYLEAHPDATPEEVIAKLTEVAKAALAKR
B2: GBRAP_128_3383 (protein)
chain: VDEEKLAKVREMVEAMVKASVEEVRKLTEEFVAFLTTLTPEEQEAAVAIAEEMLPKLSKEKLDVVADVIEEKMPSLDEYTANLLAGLQVEALNQAVELEE
B3: GBRAP_52_6024 (protein)
chain: MREELRRRVEELLELVKAGREEEARAAARELVASLNEEELELLIEELAELARAARPEDAEAVWRLTEIIAEALEEAGVDEVLADELEARVAAALYEALQR
B4: GBRAP_26_5454 (protein)
chain: IEEAIDKAEERLLALADEVLDPEKAAALKTEILTEFEEIKEVVEAHPDDAEKIKAAVDEAVKDIKEMMDKLGVPEEAREKLTKALDEEAAKIKAAIDAAA
B5: GBRAP_43_5746 (protein)
chain: DEELVEGALDLAILMAEDPSIPEETKLKAFKAAVDLIADTGIKKTELLIEMVRALAANSSEETVKEALAHLKEKAAKSEKTKETFDAAIKALEAALAARK
B6: GBRAP_160_4041 (protein)
chain: SEKYEKLKEFAKKEFEEAKEFVEGQTVEQAANIVDVTFGNIIIEAEELGIDDEELLDKIAEIGDEAVAKLLANPNLTEEEVKEIIKEAEEKVLKAIEEAK
B7: GBRAP_184_5191 (protein)
chain: KVLEYTLKAKNLEEVKEKMKELIELAKKEKADLYLIVELEEVTEEMIKAIMEALKEIKEKGYSKNITVLLEGKMTEEQIDLALKLADEAGVKLTIALDEE
B8: GBRAP_160_4068 (protein)
chain: SEEIEKLKEEIEEIFEEAIEMMKGQSHEERVTIARVMKGEVVMLLFENESVSDEAIDEADKIMDELVATIAANPDLTDEEIEELIEEAKEKIFEVLEKKS
B9: GBRAP_52_6210 (protein)
chain: MREEARALAEELLALMKAGDREGARALARRIAEEWNEEELKIFAEEFVKLAREAAPEDFDLVFELAELIAEELLKEGRDEVLADDLLNSVAAALYEREQA
B10: GBRAP_184_5347 (protein)
chain: MVAHLTVTREEWREDREGVLERVRELLKDPNVDTLVVSLEDLSFEEAKELLEEIGEIAKELGAKNVIVHVDSDLNEEEIDELIEIADKYGVRLVISIPEE
B11: GBRAP_137_3610 (protein)
chain: AKATVTVKEYEDVVEITVKVEDPEIAEKVEEELLDIAHEVGALAVSSEKKEDGSLEIEIWVPKEKAEELLKKVIELLKKVADVTLIKELPGKTEVEEIKK
B12: GBRAP_52_6005 (protein)
chain: MREALRAQVRAALALVRAGDLDAARAAIRALVAALNEEEVRLLVEAVAELAREAPVEDADAVWRLAELLAAALEEAGYDEALADELLARVAAALYEREQR
B13: GBRAP_125_3109 (protein)
chain: SEDELLAALRALARALGFSEEEAEEAAELARRFSLRQTLYAIFLAEGEEELADLVEQLTEEQARAALAALAAWLAAHPDATKEEVLAQARAILEAELARA
B14: GBRAP_78_6581 (protein)
chain: EVEEEFDKAMEHLGEAAKLARQFPQEVRDELLYLLVEAASYLLEAEEEGFDLEELEKALEALEKALKLAKQLDTPVAKELSKELEKAIEHLKKAIELLKK
B15: GBRAP_128_3351 (protein)
chain: LDEEKLEKVRKMAEEMVKADVEKTYELMKELAAFIGTLDDETAEAAAEIVIEYLPKFTKEQLDAIADALREMRPTLDPFKANLAAEVEVEALNEAEELEE
B16: GBRAP_26_5498 (protein)
chain: FIDEVLRELREEIRRILADESPELQAAVIAEAEDLLLEAEEEIEENVDDEEKIKEAIERAVEELREDLERFGLSEEKVERIVEALREALEKIAKHIKEEA
B17: GBRAP_128_3182 (protein)
chain: SVEEVVKKTREAMEKIKNSSPEEARKIAEELFDWLKTLSLEEAEAAVEEIKKLLPELSPEHLEIIADVAREHRPTFTPEKAELVADVEVEALNLLEEKEE
B18: GBRAP_160_4715 (protein)
chain: EERAKKLIEFVNEEFEEAKELIKGESIEQRAIIIEGTVGEIIMEFFEDENASDELIDEVLKIGDEAVATLLANPDLTDEEIEALLDEAREKIKEAIKKHL
B19: GBRAP_160_4214 (protein)
chain: SEKIEKIIEELREETEEVIESIPELSPEEVANLADVEFGSVLMEAVDLGEENDEILDVIAEAADRAVELLLSNKDASPEELAKGLREIAEEAIERIKKIA
B20: GBRAP_184_5040 (protein)
chain: KIFEETIEFNNLEELKKKLEELKEKVKNHKGKLIVHVIAPKFTKEMVKTLMEKLKEIKDKGYAKEVTVGLDGDMSEEVIDLAVKLADEAGINLVLALDEE
B21: GBRAP_160_4558 (protein)
chain: SEEREKAIEEIRELLEESIELMKDLSPEEIVTLWEGTLGEALAIVFESDAFTDEEEEVAGEEADRARARMRAARDLSPEELVALAREEAERLIEALRELE
B22: GBRAP_150_3921 (protein)
chain: DLEEALLIASTLIDILEAILDGELSLLPHALKLAKDLLEEAKEISEEIKKLAEELLKLLEKAQKLLKAGGDKKEILKLVEEALKVAREIEKKLEELIKKS
B23: GBRAP_83_6936 (protein)
chain: KEKITVVANSDTIKEAFEIAIDLHKEEGLEVELEVSITREDIPLLLEEFEKLAKAGVDVELNILLTGATEEEAEKLKKELEEIAKKYGVKAKINVELVEP
B24: GBRAP_160_4533 (protein)
chain: SESLEKWEELLEETAEEAIELVEGETAEQRATIVDVEFGSFALELAEDERASDEMVDVVLKTRDELVETILANPDLTDEELEELIEEAVEKTIEELKKLF
B25: GBRAP_95_7019 (protein)
chain: DDDQLAADSLAEVLETYVELGEEEKAYEAAKELVKVIAEDPSVKFPSDLSPESARIIAKAAIENLSKEDAARVLETLAASAKDPEVKAIAEAALAEVKAK
B26: GBRAP_57_6451 (protein)
chain: MTKEEKAEKIAEKAIKAVTETDDKELALKYFEELLKLLSKESLLDVLLIVDPSARADLSKEELIERIVEIAKKYLDAGDKQGFLDLIDLVLGQIDMEASE
B27: GBRAP_78_6713 (protein)
chain: EVEKLLEEAIKTLNEAAKAALELPEERANEILDLLVEAANLLHEVMEEGVSKEEALKLLEEAKKLLEKALKLLGEEDKELRKLVEEAIKLVEKAIKKLKE
B28: GBRAP_125_3055 (protein)
chain: SREEAIENLLRFAKRLGLSEDDVEYLRELAKAGSVKNTLIAIALALGYEELADALEKLTEEEVIELLKRLSEELEANPELTPEEVKELALELAKELLEKR
B29: GBRAP_166_4984 (protein)
chain: MEEELVEELKKYLEELAEKMKEAGPEERQELVAEAAERLAEAREKGLSREKLGELVEYLLRLAREVGIPISAVEGALSILADLDEEEIDILDEAARRVAA

Molecular target: GABARAP, O95166
Sequence (O95166 whole entry, the tested form may be a part): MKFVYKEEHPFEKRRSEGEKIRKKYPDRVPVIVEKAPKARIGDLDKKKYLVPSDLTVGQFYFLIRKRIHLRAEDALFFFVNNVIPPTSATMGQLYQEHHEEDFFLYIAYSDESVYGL
Assay: median log2 fold change of GCK-ALFA target abundance (FLAG IP / Myc IP barcode read proportion) (log2 ratio); each designed protein is fused to an ALFA-tag nanobody in HEK293 cells to bring the named protein to FLAG-tagged glucokinase (GCK); Myc marks an untargeted standard; higher = target protein stabilised (more abundant)
Conditions: target protein: 3xFLAG-MCP-GCK-ALFA reporter; HEK293 landing pad (RPLP)
How it was run: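 An ALFA-nanobody-fused binder library was recombined into HEK293 landing-pad cells and induced with 2 μg mL^−1 doxycycline. Cells were transfected with a plasmid expressing a FLAG-tagged target and a Myc-tagged standard. After 48 h, lysates underwent anti-FLAG and anti-Myc immunoprecipitation, and circular RNA barcodes were reverse transcribed, amplified and sequenced. Target abundance is the per-binder median log2 ratio of FLAG to Myc barcode read proportions. Barcodes needed ≥10^−7 proportion in both replicates, binders ≥3 barcodes per replicate, and a 10^−6 pseudocount was added; the two replicates were pooled.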

| Binder | median log2 fold change |
| --- | --- |
| B1 | 0.0759 |
| B2 | 0.206 |
| B3 | -0.169 |
| B4 | 0.241 |
| B5 | 0.165 |
| B6 | -0.0514 |
| B7 | 0.103 |
| B8 | -0.101 |
| B9 | 0.029 |
| B10 | 0.025 |
| B11 | 0.184 |
| B12 | 0.108 |
| B13 | -0.77 |
| B14 | -0.473 |
| B15 | 0.0962 |
| B16 | 0.14 |
| B17 | 0.238 |
| B18 | 0.156 |
| B19 | -0.179 |
| B20 | 0.311 |
| B21 | -0.0658 |
| B22 | -0.0556 |
| B23 | 0.0302 |
| B24 | -0.528 |
| B25 | 0.216 |
| B26 | 0.297 |
| B27 | 0.142 |
| B28 | -0.0884 |
| B29 | 0.23 |
